Measurements taken from PubChem BioAssay AID686978 (National Center for Advancing Translational Sciences (NCATS), 2013).
The campaign covered roughly 420,000 compounds. About 64,000 (15%) were called active. Inconclusive means that the source gave no clear call. Such entries were picked first, then a sample of the others. Calls come from the whole dose curve; as a rule, active = well fitted inhibition curve with a large enough effect; inconclusive = small, poorly fitted or top-dose-only effect; inactive = flat fitted curve, though single readings scatter. Potencies of inconclusive entries are left out as doubtful fits.

Test: qHTS for Inhibitors of human tyrosyl-DNA phosphodiesterase 1 (TDP1): qHTS in cells in absence of CPT; note: nearly all actives have a fitted effect of over 55% in size
Settings: DT40 Tdp1-/- hTDP1 cells, no CPT, ATP luminescence, 48 h; activity change, negative = growth inhibition: at 46.2 µM (top of the series) unless noted
In short: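 Compound effects on proliferation are scored in DT40 Tdp1-/-;hTDP1 cells in the absence of CPT. ATP levels (CellTiter-Glo luminescence) are recorded after a ≥48 hr, 37 °C incubation.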
% is set by controls: 0 for no effect and ±100 for the full control effect; potency is the fitted concentration of half-maximal effect; tags give direction and shape of the fitted curve.

SMILES	Potency	activity change, negative = growth inhibition
COCCNC(=O)Cn1ccc2cc(S(=O)(=O)N3CCCCC3)ccc21	inactive	–
COc1ccccc1Oc1ccc2c(c1)C(=O)N(c1ccc(O)cc1)C2=O	–	inconclusive: -33.7% [inhibitor]
CCN(CC)S(=O)(=O)c1ccc(N2CCN(S(=O)(=O)c3ccccc3C#N)CC2)nc1	inconclusive [inhibitor, partial curve, poor fit]	–
CCN(C(=O)c1cc2c(=O)[nH]c3ccc(C)cc3c2s1)c1ccc(F)cc1	inconclusive [inhibitor, partial curve]	–
O=C1CC(c2ccc(Cl)cc2)CC(=O)C1CS(=O)(=O)c1ccccc1 (centres undefined)	inactive	–
C=CCSc1nc2ccsc2c(=O)n1-c1cccnc1	inactive	–
CC(C)CNc1ncnc2c1cnn2Cc1ccccc1Cl	inconclusive [inhibitor, single point]	–
CC(=O)Nc1cc(C(=O)NCCN2CCN(Cc3ccccc3)CC2)ccc1Sc1ccc(C)cc1	inactive	–
COc1ccccc1NC(=S)N1CCN(c2ccccc2F)CC1	inconclusive [inhibitor, single point]	–
CCCc1n(CC)c2ccccc2[n+]1CC(O)COC1CCCCC1 (centres undefined)	active: 4.11 µM	–
COc1cc(NC(=O)COC(=O)CC(C)(C)C)c(C)cc1[N+](=O)[O-]	inconclusive [inhibitor, single point]	–
O=[N+]([O-])c1cc(S(=O)(=O)C(F)(F)F)ccc1Sc1nc2ccccc2[nH]1	active: 7.31 µM	–
C[C@H]1CN([C@@H](C)CO)S(=O)(=O)c2ccc(Br)cc2O[C@H]1CN(C)C(=O)c1cccc(F)c1	inactive	–
Cc1nn(Cc2ccccc2)c(C)c1NC(=O)c1cc2nc(-c3ccco3)cc(C(F)(F)F)n2n1	–	inconclusive: -30.2% [inhibitor]
CCCCCOc1ccc(C2C(C(=O)c3ccc(C)o3)=C(O)C(=O)N2c2cc(C)on2)cc1 (centres undefined)	inconclusive [inhibitor, single point]	–
COc1ccc(CNC(=O)c2sc(=S)n(-c3ccc(OC)cc3)c2N)cc1	–	inconclusive: -32.6% [inhibitor]
O=C(Nc1ccc(Cl)cn1)c1ccc2c(Cl)c3c(nc2c1)CCC3	inconclusive [inhibitor, single point]	–
Cn1c(-c2nc(-c3ccccc3)cs2)nc2ccccc21	inconclusive [inhibitor, single point]	–
COc1ccc(-c2[nH]n(-c3ccc([N+](=O)[O-])cc3)c(=O)c2C=NCC2CCCO2)cc1 (centres undefined)	inconclusive [inhibitor, single point]	–
CCc1ccc(Nc2nc(N3CCOCC3)nc(N3CCOCC3)n2)cc1	inconclusive [inhibitor, single point]	–
Cc1cccc(N(Cc2ccc(Cl)cc2)S(C)(=O)=O)c1	inactive	–
Cc1cccc(CN2CCCC(C(=O)N3CCCCC3)C2)c1 (centres undefined)	inconclusive [inhibitor, single point]	–
CC1(NC(=O)c2cccc(S(=O)(=O)N3CCCc4ccccc43)c2)CCS(=O)(=O)C1 (centres undefined)	inconclusive [inhibitor, single point]	–
O=C(N/N=C\c1cccnc1)c1cc(-c2ccccc2)nc2c(Cl)cccc12	inconclusive [inhibitor, single point]	–
Cc1nn(C)c(C)c1NC(=O)c1ccc(S(=O)(=O)N(C)C)cc1	inactive	–

SMILES	Potency	activity change, negative = growth inhibition
c1ccc(CSc2nnc(-c3ccco3)n2Cc2ccccc2)cc1	inconclusive [inhibitor, single point]	–
Nc1c(N(CCC2=CCCCC2)C(=O)Cc2ccccc2F)c(=O)[nH]c(=O)n1Cc1ccccc1	–	inconclusive: -30.3% [inhibitor]
O=S(=O)(c1ccc2ncsc2c1)N1CCN(c2nc(-c3cccs3)nc3ccccc23)CC1	inconclusive [inhibitor, single point]	–
Cc1ccc(S(=O)(=O)NCC(=O)OCc2csc(-c3ccccc3)n2)cc1	inconclusive [inhibitor, single point]	–
O=C(c1ccccc1F)N(Cc1cc2cc3c(cc2nc1N1CCOCC1)CCC3)CC1CCCO1 (centres undefined)	inconclusive [inhibitor, single point]	–
COc1ccccc1CNS(=O)(=O)CCNC(=O)c1ccccc1	inactive	–
COc1ccc(NS(=O)(=O)c2ccc(C(=O)N3CCCCCC3)cc2)cc1	active: 8.2 µM	–
COc1cccc(C2CN(c3ccc(F)cc3F)N=C2c2cccs2)c1OC (centres undefined)	inconclusive [inhibitor, single point]	–
CC(NC(=O)c1ccccc1Cl)C1CC2CCC1C2 (centres undefined)	inactive	–
O=C(CSc1nc2ccc(Cl)cc2[nH]1)NCCc1ccc(Cl)cc1	inconclusive [inhibitor, partial curve]	–
Cc1cc2nnc(SCC(=O)NCc3cccs3)n2c2ccccc12	inactive	–
O=C(Nc1ccc(F)cc1)C1CC(=O)n2cnnc2N1 (centres undefined)	inactive	–
COC(=O)C1=CN(C2CCCCC2)C=C(C(=O)OC)C1c1ccc2c(c1)OCO2	inconclusive [inhibitor, single point]	–
Cc1ccc(S(=O)(=O)CCC(=O)OC(C)c2nnc(-c3cccs3)o2)cc1 (centres undefined)	inactive	–
COc1ccc(C(=O)NC(=S)NNC(=O)c2ccco2)cc1	active: 20.6 µM	–
Fc1ccc(NC(=S)N2CCCc3ccccc32)cc1	–	inconclusive: -1.8% [inhibitor]
CCn1c2c(c(=N)c3c1CCC3)CCCC2	active: 9.2 µM	–
S=c1nc2[nH]c3ccccc3c2n[nH]1	inconclusive [inhibitor, single point]	–
O=C1C=C(C2OC(CO)C(O)C2O)C(=O)N1 (centres undefined)	active: 6.51 µM	–
CCOc1cc(-c2noc(N)c2C(=O)OC)cc(OCC)c1OCC	inconclusive [inhibitor, single point]	–
CCOc1ccc(CCNC(=O)c2cc3c(=O)n(C)c4ccccc4c3s2)cc1OCC	inconclusive [inhibitor, partial curve, poor fit]	–
Cc1cc([N+](=O)[O-])cc2c1NCC1CC=CC21 (centres undefined)	inconclusive [inhibitor, single point]	–
Cc1nc(N)c(Cc2ccc(Cl)cc2Cl)c(N)n1	active: 8.2 µM	–
CCc1nc2c(OCC(=O)C(C)(C)C)cccn2c1N(C)C(=O)c1ccc(C)cc1	inconclusive [inhibitor, single point]	–
CC(C)n1ncc2c(C(=O)Nc3cccc(C#N)c3)cc(C3CC3)nc21	inconclusive [inhibitor, single point]	–

SMILES	Potency	activity change, negative = growth inhibition
COc1ccc(NC(=O)CN(C)CCOc2ccc(Cl)cc2)cc1OC	inconclusive [inhibitor, single point]	–
CC[C@@H](C)[C@@H](C(=O)N1CCN(C(=O)OC(C)(C)C)CC1)n1cc(CCC(=O)O)nn1	inactive	–
CC1(C)Cc2c(c(N3CCOCC3)nc3snc(Br)c23)CO1	inconclusive [inhibitor, partial curve]	–
O=[N+]([O-])c1ccc2c(c1)nc1n2CCN(CC2CCCO2)C1 (centres undefined)	inconclusive [inhibitor, single point]	–
Cc1ccc(NC(=O)Cn2cccc2)cc1	inactive	–
CCCCCCCCCC[n+]1cccc2c3ccccc3ccc21	active: 0.146 µM	–
COCCNC(=S)NN=C1CCCCCC1	inactive	–
Cc1ccc(CCNC(=O)C2CCN(S(=O)(=O)c3cccc4cccnc34)CC2)cc1	inconclusive [inhibitor, single point]	–
CC(C)NC(=O)C1Cc2c(-c3ccc(Cl)cc3)ccnc2O1 (centres undefined)	inactive	–
COc1ccc(C(=O)N[C@H](C(=O)NCCCSc2ccccc2)C(C)C)cc1	inconclusive [inhibitor, single point]	–
CCOC(=O)c1ccc2ncc(C(=O)OCC)c(NCCc3ccc(OC)c(OC)c3)c2c1	active: 14.6 µM	–
O=c1c2ccccc2oc2cc(OCc3ccc(F)cc3)cc(O)c12	inactive	–
COc1ccc(S(=O)(=O)N2CCN(C(=O)CCC3CCCC3)CC2)cc1	inconclusive [inhibitor, single point]	–
Cc1cc(C)c(NC(=O)c2ccc(CN3CCc4ccccc4C3)cc2)c(C)c1	active: 11.6 µM	–
C/C(=N\NC(=O)CCCC(=O)O)c1c(-c2ccccc2)c2cc(Cl)ccc2[nH]c1=O	inactive	–
COC(=O)[C@]12CCCCC=C1N(CCC1=CCCCC1)C(=O)[C@H](CC(=O)NCC1CCCCC1)C2	active: 23.1 µM	–
CC(C)(C)c1ccc(C(=O)N2CCC2(C)C(=O)Nc2cccc3ccccc23)cc1 (centres undefined)	active: 23.1 µM	–
COc1cc(C(=O)NCCc2ccc(F)cc2)c([N+](=O)[O-])cc1OC	inconclusive [inhibitor, single point]	–
COc1ccc(OC)c(C(C)NC(=O)C23CC4CC(CC(C4)C2)C3)c1 (centres undefined)	inconclusive [inhibitor, single point]	–
CC(C)C(c1nnnn1Cc1ccco1)N1CCN(c2cccc(Cl)c2)CC1 (centres undefined)	inconclusive [inhibitor, single point]	–
Cc1cccc(N2CCN(C(c3ccc(F)cc3)c3nnc(-c4ccccc4)o3)CC2)c1C (centres undefined)	active: 16.4 µM	–
COc1ccc2c(c1)CCN1C2CCN2C(=O)CCC21 (centres undefined)	inactive	–
CCN1CCN(C(=O)Cn2ncc3c4ccccc4n(Cc4ccccc4F)c3c2=O)CC1	active: 18.4 µM	–
Nc1cc(S(=O)(=O)N2CCCCC2)ccc1N1CCCCC1	inconclusive [inhibitor, single point]	–
